Assay results reported in PMC11791083.
These are yes or no findings as the source states them, for the method shown. In cells and extracts the contact can be indirect. Some entries that bind do so weakly or less than the wild type. For some of these results: Where a sequence is shown, tags or fusion partners need not be part of it.

Protein sequences, listed by entry. Tags and fused reporters are not part of them.
UniProt Q15717: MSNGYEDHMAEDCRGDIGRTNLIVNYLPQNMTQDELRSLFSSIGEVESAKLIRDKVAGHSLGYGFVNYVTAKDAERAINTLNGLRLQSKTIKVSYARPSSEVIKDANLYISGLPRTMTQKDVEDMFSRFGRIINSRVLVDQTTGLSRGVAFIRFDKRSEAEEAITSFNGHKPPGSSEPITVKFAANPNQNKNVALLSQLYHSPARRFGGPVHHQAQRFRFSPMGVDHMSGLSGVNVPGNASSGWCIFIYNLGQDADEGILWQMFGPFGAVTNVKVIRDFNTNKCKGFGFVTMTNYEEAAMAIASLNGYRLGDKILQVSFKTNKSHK

Assays:
[1] = target: T1, heterogeneous nuclear ribonucleoprotein M, C-terminally GFP-tagged (hnRNPM-GFP) (human) (UniProt P52272); assay: co-IP; GFP-Trap magnetic agarose on lysates of THP-1 cells expressing hnRNPM-GFP or GFP, non-stimulated or pDNA-stimulated (0.1 µg/ml, 3 h); TAP lysis buffer, 4 °C overnight; IPs with or without RNase A (100 µg/ml, 1.5 h); immunoblot
T1 sequence: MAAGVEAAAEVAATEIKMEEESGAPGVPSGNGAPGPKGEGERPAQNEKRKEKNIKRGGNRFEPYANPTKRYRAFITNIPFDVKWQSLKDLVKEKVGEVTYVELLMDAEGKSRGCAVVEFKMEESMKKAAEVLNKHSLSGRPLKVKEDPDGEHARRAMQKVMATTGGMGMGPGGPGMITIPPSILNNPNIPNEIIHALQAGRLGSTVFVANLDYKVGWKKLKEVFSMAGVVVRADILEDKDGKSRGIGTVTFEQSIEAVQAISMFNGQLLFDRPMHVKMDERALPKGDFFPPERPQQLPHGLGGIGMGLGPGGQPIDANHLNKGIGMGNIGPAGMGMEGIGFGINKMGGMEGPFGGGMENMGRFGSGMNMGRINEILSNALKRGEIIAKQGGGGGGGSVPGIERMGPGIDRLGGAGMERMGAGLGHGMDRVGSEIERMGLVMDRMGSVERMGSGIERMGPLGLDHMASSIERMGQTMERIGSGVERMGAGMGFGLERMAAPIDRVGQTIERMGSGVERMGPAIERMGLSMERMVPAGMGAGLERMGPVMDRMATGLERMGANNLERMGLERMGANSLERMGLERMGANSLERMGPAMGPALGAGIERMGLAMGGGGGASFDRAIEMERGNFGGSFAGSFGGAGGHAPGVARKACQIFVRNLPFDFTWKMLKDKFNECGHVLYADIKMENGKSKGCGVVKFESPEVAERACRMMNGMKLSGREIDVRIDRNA

[2] = target: T2, heterogeneous nuclear ribonucleoprotein M, C-terminally GFP-tagged (hnRNPM-GFP) (human), P52272; assay: as above; conditions: remark: other sources report otherwise
T2 chain: T1 sequence

[3] = target: ELAV-like protein 1, FLAG-tagged (ELAVL1-FLAG) (human) (UniProt Q15717); assay: co-IP; anti-FLAG M2 magnetic beads on lysates of HEK293FT cells transfected with ELAVL1-FLAG or WT cells; 4 °C overnight; IPs with or without RNase A (100 µg/ml, 1.5 h); elution with 3x FLAG peptide; immunoblot

B1: IκB kinase β (IKKβ), endogenous in THP-1 (protein, UniProt O14920 1-756)
chain: MSWSPSLTTQTCGAWEMKERLGTGGFGNVIRWHNQETGEQIAIKQCRQELSPRNRERWCLEIQIMRRLTHPNVVAARDVPEGMQNLAPNDLPLLAMEYCQGGDLRKYLNQFENCCGLREGAILTLLSDIASALRYLHENRIIHRDLKPENIVLQQGEQRLIHKIIDLGYAKELDQGSLCTSFVGTLQYLAPELLEQQKYTVTVDYWSFGTLAFECITGFRPFLPNWQPVQWHSKVRQKSEVDIVVSEDLNGTVKFSSSLPYPNNLNSVLAERLEKWLQLMLMWHPRQRGTDPTYGPNGCFKALDDILNLKLVHILNMVTGTIHTYPVTEDESLQSLKARIQQDTGIPEEDQELLQEAGLALIPDKPATQCISDGKLNEGHTLDMDLVFLFDNSKITYETQISPRPQPESVSCILQEPKRNLAFFQLRKVWGQVWHSIQTLKEDCNRLQQGQRAAMMNLLRNNSCLSKMKNSMASMSQQLKAKLDFFKTSIQIDLEKYSEQTEFGITSDKLLLAWREMEQAVELCGRENEVKLLVERMMALQTDIVDLQRSPMGRKQGGTLDDLEEQARELYRRLREKPRDQRTEGDSQEMVRLLLQAIQSFEKKVRVIYTQLSKTVVCKQKALELLPKVEEVVSLMNEDEKTVVRLQEKRQKELWNLLKIACSKVRGPVSGSPDSMNASRLSQPGQLMSQPSTASNSLPEPAKKSEELVAEAHNLCTLLENAIQDTVREQDQSFTALDWSWLQTEEEEHSCLEQAS
binding [1]: binds

B2: TANK-binding kinase 1 (TBK1), endogenous in THP-1, Q9UHD2 1-729 (protein)
chain: MQSTSNHLWLLSDILGQGATANVFRGRHKKTGDLFAIKVFNNISFLRPVDVQMREFEVLKKLNHKNIVKLFAIEEETTTRHKVLIMEFCPCGSLYTVLEEPSNAYGLPESEFLIVLRDVVGGMNHLRENGIVHRDIKPGNIMRVIGEDGQSVYKLTDFGAARELEDDEQFVSLYGTEEYLHPDMYERAVLRKDHQKKYGATVDLWSIGVTFYHAATGSLPFRPFEGPRRNKEVMYKIITGKPSGAISGVQKAENGPIDWSGDMPVSCSLSRGLQVLLTPVLANILEADQEKCWGFDQFFAETSDILHRMVIHVFSLQQMTAHKIYIHSYNTATIFHELVYKQTKIISSNQELIYEGRRLVLEPGRLAQHFPKTTEENPIFVVSREPLNTIGLIYEKISLPKVHPRYDLDGDASMAKAITGVVCYACRIASTLLLYQELMRKGIRWLIELIKDDYNETVHKKTEVVITLDFCIRNIEKTVKVYEKLMKINLEAAELGEISDIHTKLLRLSSSQGTIETSLQDIDSRLSPGGSLADAWAHQEGTHPKDRNVEKLQVLLNCMTEIYYQFKKDKAERRLAYNEEQIHKFDKQKLYYHATKAMTHFTDECVKKYEAFLNKSEEWIRKMLHLRKQLLSLTNQCFDIEEEVSKYQEYTNELQETLPQKMFTASSGIKHTMTPIYPSSNTLVEMTLGMKKLKEEMEGVVKELAENNHILERFGSLTMDGGLRNVDCL
binding [2]: binds

B3: IκB kinase ε (IKKε), endogenous in THP-1 (protein, UniProt Q14164 1-716)
chain: MQSTANYLWHTDDLLGQGATASVYKARNKKSGELVAVKVFNTTSYLRPREVQVREFEVLRKLNHQNIVKLFAVEETGGSRQKVLVMEYCSSGSLLSVLESPENAFGLPEDEFLVVLRCVVAGMNHLRENGIVHRDIKPGNIMRLVGEEGQSIYKLTDFGAARELDDDEKFVSVYGTEEYLHPDMYERAVLRKPQQKAFGVTVDLWSIGVTLYHAATGSLPFIPFGGPRRNKEIMYRITTEKPAGAIAGAQRRENGPLEWSYTLPITCQLSLGLQSQLVPILANILEVEQAKCWGFDQFFAETSDILQRVVVHVFSLSQAVLHHIYIHAHNTIAIFQEAVHKQTSVAPRHQEYLFEGHLCVLEPSVSAQHIAHTTASSPLTLFSTAIPKGLAFRDPALDVPKFVPKVDLQADYNTAKGVLGAGYQALRLARALLDGQELMFRGLHWVMEVLQATCRRTLEVARTSLLYLSSSLGTERFSSVAGTPEIQELKAAAELRSRLRTLAEVLSRCSQNITETQESLSSLNRELVKSRDQVHEDRSIQQIQCCLDKMNFIYKQFKKSRMRPGLGYNEEQIHKLDKVNFSHLAKRLLQVFQEECVQKYQASLVTHGKRMRVVHETRNHLRLVGCSVAACNTEAQGVQESLSKLLEELSHQLLQDRAKGAQASPPPIAPYPSPTRKDLLLHMQELCEGMKLLASDLLDNNRIIERLNRVPAPPDV
binding [1]: binds

B4: heterogeneous nuclear ribonucleoprotein M (hnRNPM), endogenous in HEK293FT (protein, UniProt P52272 1-730)
chain: T1 sequence
binding [3]: binds

B5: TANK-binding kinase 1 (TBK1), endogenous in HEK293FT (protein, UniProt Q9UHD2 1-729)
chain: B2 chain
binding [3]: binds

B6: IRF3 phosphorylated at Ser396 (pIRF3-Ser396), endogenous in THP-1 (protein, UniProt Q14653 1-427)
chain: MGTPKPRILPWLVSQLDLGQLEGVAWVNKSRTRFRIPWKHGLRQDAQQEDFGIFQAWAEATGAYVPGRDKPDLPTWKRNFRSALNRKEGLRLAEDRSKDPHDPHKIYEFVNSGVGDFSQPDTSPDTNGGGSTSDTQEDILDELLGNMVLAPLPDPGPPSLAVAPEPCPQPLRSPSLDNPTPFPNLGPSENPLKRLLVPGEEWEFEVTAFYRGRQVFQQTISCPEGLRLVGSEVGDRTLPGWPVTLPDPGMSLTDRGVMSYVRHVLSCLGGGLALWRAGQWLWAQRLGHCHTYWAVSEELLPNSGHGPDGEVPKDKEGGVFDLGPFIVDLITFTEGSGRSPRYALWFCVGESWPQDQPWTKRLVMVKVVPTCLRALVEMARVGGASSLENTVDLHISNSHPLSLTSDQYKAYLQDLVEGMDFQGPGES
modifications: phosphoserine at 396
binding [1]: no binding

B7: interferon regulatory factor 3 (IRF3), endogenous in THP-1 (protein, UniProt Q14653 1-427)
chain: B6 chain
binding [1]: no binding
